Data from the RNAGym collection of RNA variant scans (doi:10.7554/elife.90254).
Read counts are not given, so values of variants with three or more changes are uncertain.

B1: LINE1-mini (parent)
chain: GGCAGAGCUCAACACAGCGUGGCAAAGUGGCUGUGGCUAGACUGCC

Variants of: B1
Test: self-cleavage, relative activity (ratio to wild type); higher = more cleavage; in vitro, sequencing; the parent is a self-cleaving ribozyme

Row | Variant | self-cleavage
1 | G17U G19U G21U C23G C31G | 0.59
2 | G17C U28G U34G | 0
3 | G17C U20A C31G | 0.29
4 | A16G G19C C31A U32A G44C | 0.02
5 | A16U G21U G22A C23A A26G A41C U43A C45G | 0.02
6 | G17U C31U C37U | 0.04
7 | A16U U28A C31U | 0.01
8 | A16U G19U C31A G33A | 0.08
9 | G17A G27A G30A | 0.1
10 | G17U G30C G36U | 0.08
11 | G17U G19U A25G C37G | 0.18
12 | A16G C18A U34A A39G | 0.05
13 | A16C G35C A41C | 0.02
14 | A16G G21U A26C | 0.37
15 | A16G G27U U28G G30A G36U | 0.15
16 | A16G G17A U38A | 0.05
17 | G17C G27C C45A | 0.41
18 | A16G C18A C42A | 0.02
19 | G17C G22U A39G | 0.28
20 | G17A U20A G29U | 0.08
21 | G17C U20A A24G G27A | 1.37

Row | Variant | self-cleavage
22 | G17C U20A A25G | 0.28
23 | G17A G19U G30C | 0.34
24 | G17A A25C C42A U43C | 0.01
25 | A16C G19U G33C C46A | 0.04
26 | G17A C31U A39C | 0.04
27 | G17A G22A G27U U28A G29U | 2.15
28 | G17U G21A U28A G36A C37A | 0.04
29 | A16U A24U C42U | 0.03
30 | G17A G29U U38A | 0.03
31 | G17C U20A C37A | 0.04
32 | A16U G21A G29C C45A | 0.86
33 | A16C G21U A25G U28A C42G | 0.03
34 | G17A G19A C23U G29U G44A | 0.01
35 | G17U G27C G35U C37G | 0.1
36 | G17A U28C G29C C46U | 0.26
37 | A16G A24C A26U | 0.02
38 | G17A U28G C37A | 0.12
39 | G17A U20G G21A | 0.06
40 | A16G C18A C23G C37U | 0.05
41 | G17U A25U G27U A41U | 0.08
42 | A16U C37A G40U A41C | 0.11

Row | Variant | self-cleavage
43 | G17A C18A G21A G30C | 0.11
44 | A16G G33C U43A | 0.02
45 | G17U C18A G36C A41C | 0.02
46 | A16C G22A G35U A41C | 0.02
47 | G17A U28C A39C | 0.03
48 | G17U G30C U34C | 0.03
49 | G17A C23A U38G C42G | 0.02
50 | G17C C37U C42G | 0.03
51 | A16G U20G G27A C45U | 0.36
52 | G17U G21A C23G | 0.05
53 | G17C G33U G35U C46A | 0.05
54 | G17U C31G C37G | 0.02
55 | G17A G36U U43A C45A | 0.03
56 | G17U C31A G44A | 0.43
57 | G17C U28G G44A | 0.03
58 | G17A C18A A25C A26G A41C | 0.03
59 | G17A U20G A39G | 0.02
60 | A16U U34A G36C | 0.01
61 | G17C C18A C46G | 0.09
62 | G17C C18G G44U | 0.08
63 | A16G C18G G35U | 0.14

Row | Variant | self-cleavage
64 | A16G G29U U34A | 0.02
65 | A16U U28C U38G | 0
66 | G17A G29C G36C C42G | 0.03
67 | A16G C18A U34A | 0.02
68 | G17U G19C C37U | 0.07
69 | A16G C18U G21A C23A G40C | 0.01
70 | G17C C23A G44A | 0.09
71 | A16U G22A G30C A41G | 0.08
72 | G17U C23A C42U U43A C46A | 0.08
73 | A16C G30C U34C G36U | 0.05
74 | A16G G17U G21U U38A | 0.24
75 | A16G A41C C45U | 0.03
76 | G17C U20C C23A | 0.87
77 | G17U G27C G35A | 0.07
78 | A16U A24G G29A | 1.38
79 | A16U G22C U34G G35A | 0.01
80 | G17C C18A G35U | 0.02
81 | A16G G27C U32A | 0.04
82 | A16G G22A C42U | 0.74
83 | G17U A26G U28A | 0.12
84 | A16G G22A G35C C42A U43C | 0.02
